Laboratory results taken from PubChem BioAssay AID1347417 (National Center for Advancing Translational Sciences (NCATS), 2020).
In all, about 120,000 compounds went through this assay and about 5,300 (4.4%) were called active. Inconclusive means that the source gave no clear call. Such entries were picked first, then a sample of the others. Calls come from the whole dose curve; as a rule, active = well fitted inhibition curve with a large enough effect; inconclusive = small, poorly fitted or top-dose-only effect; inactive = no such curve, though single readings can be large or run the other way. Potencies of inconclusive entries are doubtful fits and often do not repeat.

Experiment: qHTS Primary assay for Inhibitors of Plasmodium falciparum Dd2 growth in vitro; note: nearly all actives have a fitted effect of over 65% in size;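 for activity, negative = inhibition: plate controls were DMSO vehicle for no effect and reference drug for full effect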
Settings: P. falciparum Dd2 growth, SYBR Green, 72 h; activity, negative = inhibition: at 28.9 µM (top of the series) unless noted; series mostly up to 28.9 µM
How it was run: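 Readout: SYBR Green fluorescence, 485 nm excitation, 535 nm emission, after ~16 h lysis at 37C. Before that, Dd2-infected red cells (2.5% hematocrit) grew 72 h with compound, 29 uM top final concentration.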
Potency is the fitted concentration of half-maximal effect; tags give direction and shape of the fitted curve.

Row | Structure (SMILES) | Potency | outcome | activity, negative = inhibition
1 | COc1ccc(-c2noc([C@@H]3CCCN3C(=O)c3ccccc3F)n2)cc1OC | inconclusive: 10 µM [inhibitor, single point] |  | 
2 | Cc1ncc(CN2CCC(C(=O)Nc3cccc(-c4cc5ccccc5[nH]4)c3)CC2)cn1 | active: 8.91 µM |  | 
3 | Cc1ccc(Cl)cc1Nc1sc(C(=O)c2ccc(F)cc2)c(N)c1S(C)(=O)=O | inconclusive: 11.2 µM [inhibitor, single point] |  | 
4 | CC(C)N1C(=O)C2(CCCC2)C1C(=O)NCc1cc(F)cc(F)c1 (stereo not given) | inconclusive: 17.8 µM [inhibitor, single point] |  | 
5 | CC1(C(=O)Nc2ccccc2)CN(Cc2ccccc2)Cc2ccc(N3CCOCC3)nc21 (stereo not given) |  | inactive | 
6 | CCOC(=O)C1(Cc2ccccc2C(F)(F)F)CCNCC1 | inconclusive: 1.12 µM [inhibitor, full curve, poor fit] |  | 
7 | CCCCOC(=O)c1ccc(OC(=O)c2sc3ncn(Cc4ccccc4Cl)c(=O)c3c2C)cc1 | inconclusive: 12.6 µM [inhibitor, single point] |  | 
8 | COc1cccc(CN2C[C@@H]3C[C@H]2C(=O)N(Cc2ccccc2)c2ccccc2O3)n1 | inconclusive: 5.62 µM [inhibitor, partial curve, poor fit] |  | 
9 | CCOC(=O)c1cnc(N2CC3CCC(C2)N3CC(F)(F)F)s1 | inconclusive: 10 µM [inhibitor, single point] |  | 
10 | COc1ccc(-n2nc(C3CCN(Cc4ccc(N(C)C)cc4)CC3)[nH]c2=O)cc1 |  |  | inactive: -2.61%
11 | COc1ccc(CC(=O)Nc2sc3c(c2C(=O)Nc2cccc(C)c2)CCCCC3)cc1 | inconclusive: 10 µM [inhibitor, single point] |  | 
12 | C[S+](=O)([O-])CCn1ncc2cc(OCc3cccc(-c4ccccc4O)c3)ccc21 | active: 7.94 µM |  | 
13 | CC[C@H]1CN2CC[C@H]1C[C@@H]2COC(=O)Nc1ccc(C(C)(C)C)cc1 | inconclusive: 2.82 µM [inhibitor, single point] |  | 
14 | COc1ccccc1N1CCN(C(c2ccc(Cl)cc2)c2nnc(-c3cccc(F)c3)o2)CC1 (stereo not given) | inconclusive: 12.6 µM [inhibitor, single point] |  | 
15 | CCCN(CC1CCOC1)S(=O)(=O)c1cc(F)cc(F)c1 (stereo not given) |  |  | inactive: 39.3% [at 5.79 µM]
16 | CC(C)c1nc(NC2CCCC2)ncc1C(=O)O |  |  | inactive: 8.52%
17 | Cc1cccc(C)c1Oc1ncccc1CNC(=O)CC1CCC(=O)N1 (stereo not given) |  |  | inactive: -2.05%
18 | Cc1ccccc1Nc1c(-c2ccc(Br)cc2O)nc2sccn12 | active: 2.51 µM |  | 
19 | COc1cccc(CNC(=O)c2c(C)noc2-c2ccccc2Cl)c1 | inconclusive: 7.94 µM [inhibitor, partial curve, poor fit] |  | 
20 | CCn1cc(-c2ccncc2)cc1C(=O)NCc1ccc(OC(C)C)cc1 | inconclusive: 17.8 µM [inhibitor, single point] |  | 
21 | CCOc1ccc(NC(=O)Cn2cc(C(=O)c3ccc(OC)cc3)c(=O)c3cc4c(cc32)OCO4)cc1 |  |  | inactive: 3.73%
22 | Cc1ccccc1CCC1CCCN(CC(=O)N2CCOCC2)C1 (stereo not given) | inconclusive: 3.16 µM [inhibitor, single point] |  | 

Row | Structure (SMILES) | Potency | outcome | activity, negative = inhibition
23 | COCCNC(=O)c1ccc(-n2c(-c3ccccc3)cc3c2CCC(C)C3)cc1 (stereo not given) |  |  | inactive: -30.7%
24 | Cc1cc(C(=O)N[C@H](C)c2onc(C)c2C(=O)O)c(C)o1 |  |  | inactive: 5.73% [at 44.1 µM]
25 | Cc1cccc(C(=O)N2CCCC(Cc3ncc(C)n3Cc3ccccc3)C2)c1 (stereo not given) | inconclusive: 2.51 µM [inhibitor, single point] |  | 
26 | O=C(c1ccc(CN2C(=O)NC3(CCS(=O)(=O)CC3)C2=O)cc1)N1CCOCC1 |  |  | inactive: -13.1%
27 | CCCN(CC1CCOC1)C(=O)Nc1cc(Cl)ccc1OC (stereo not given) | inconclusive: 12.6 µM [inhibitor, single point] |  | 
28 | Cc1nn(C)cc1C(=O)N1CCC2(CC1)CN(c1ncccn1)CC2CO (stereo not given) | inconclusive: 3.98 µM [inhibitor, single point] |  | 
29 | Cn1cc(-c2cnc3[nH]cc(CC(=O)NCc4cccc(F)c4)c3c2)cn1 | inconclusive: 3.16 µM [inhibitor, partial curve, poor fit] |  | 
30 | CN(C)C(=O)c1cccnc1OC1CCN(C(=O)c2ccoc2)C1 (stereo not given) |  |  | inactive: -9.99%
31 | FC(F)(F)c1ccc2c(c1)nc1n2[C@@H](CNCc2ccccc2)COC1 | inconclusive: 12.6 µM [inhibitor, single point] |  | 
32 | c1cncc(CN2CCc3c(sc4ncnc(N5CCCC5)c34)C2)c1 | inconclusive: 11.2 µM [inhibitor, single point] |  | 
33 | Cc1ccc(-n2ncc(C(=O)NCc3ccccc3)c2C2CCN(C(=O)OC(C)(C)C)CC2)cc1 | inconclusive: 7.94 µM [inhibitor, partial curve, poor fit] |  | 
34 | CN(C)c1ccc(CC(=O)N2CCn3nc(Cc4ccccc4)cc3C2)cc1 | inconclusive: 7.94 µM [inhibitor, partial curve, poor fit] |  | 
35 | CCn1ncc(CN2CC[C@H]3C(=O)NCCCCCCN(Cc4ccncc4)[C@@H]3C2)c1C | inconclusive: 20 µM [inhibitor, partial curve, poor fit] |  | 
36 | COc1ccccc1Nc1c2c(nc3ccc(NC(=O)c4ccc(OC)c(OC)c4)cc13)CCCC2 | inconclusive: 7.08 µM [inhibitor, partial curve, poor fit] |  | 
37 | CC(C)NC(=O)N1CC2ON=C(C(=O)NCCc3ccc(Cl)cc3)C2C1 (stereo not given) |  |  | inactive: -6.27%
38 | COc1cc(N2C(=O)CSC23C(=O)N(Cc2cccc(F)c2)c2ccccc23)cc(OC)c1OC (stereo not given) | inconclusive: 3.98 µM [inhibitor, single point] |  | 
39 | CCOC(=O)Cn1c(=O)n(CC2CCCO2)c2nc(-c3ccc(OCC)cc3)nc(C(N)=O)c21 (stereo not given) | inconclusive: 10 µM [inhibitor, single point] |  | 
40 | O=C(NC1CCCCC1)N1CCCC1c1noc(COc2ccc(F)cc2)n1 (stereo not given) | inconclusive: 17.8 µM [inhibitor, single point] |  | 
41 | CC1=C[C@@H](CNC(=O)COc2ccccc2)[C@H](C(C)C)C[C@H]1CC(=O)NCCN(C)C |  |  | inactive: -7.52% [at 44.1 µM]
42 | C=CC[C@@H]1CC=C[C@@H](C)N1C(=O)c1cc(OC)ccc1OC1CCN(C(=O)C2CC2)CC1 |  |  | inactive: -15.9%
43 | COc1ccc(S(=O)(=O)N2C[C@@H]3C[C@H](C2)c2c(NC(=O)c4ccccc4)ccc(=O)n2C3)cc1 | inconclusive: 5.62 µM [inhibitor, partial curve, poor fit] |  | 
44 | CNC(=O)c1ccc(CNc2cc(C3CC(O)C3)nc(N)n2)o1 (stereo not given) |  |  | inactive: -7.82%

Row | Structure (SMILES) | Potency | outcome | activity, negative = inhibition
45 | CCNc1nccc(N2CCC(CC(=O)NCCCOC)CC2)n1 |  |  | inactive: 4.85%
46 | COc1cccc(CN2CCCCCCNC(=O)[C@@H]3C[C@@H](C(=O)N4CCc5ccccc5C4)C[C@@H]32)c1 | inconclusive: 5.62 µM [inhibitor, partial curve, poor fit] |  | 
47 | Cc1ccc(NC(=O)N2CCC(CCNC(=O)c3ccc(F)cc3)CC2)cc1F | inconclusive: 3.98 µM [inhibitor, single point] |  | 
48 | Cc1ccc(C(=O)NC2CCN(c3cc(C(F)(F)F)nc(C)n3)CC2)cc1 |  | inactive | 
49 | CC(C)CCN1CCC(N2CCN(S(=O)(=O)Cc3ccc(F)cc3Cl)CC2)C1=O (stereo not given) | inconclusive: 17.8 µM [inhibitor, single point] |  | 
50 | O=C(Cc1ccc(Cl)cc1)N1CCC2(CC1)CC(O)CCO2 (stereo not given) | inconclusive: 3.55 µM [inhibitor, single point] |  | 
51 | COc1cccc(C2CC(=O)Nc3c2c(=O)nc2c(C)cccn32)c1 (stereo not given) |  |  | inactive: 20.7%
52 | COC1CN(c2ccc(C)cc2)C12CCN(C(=O)c1ccnn1C)CC2 (stereo not given) | inconclusive: 2 µM [inhibitor, single point] |  | 
53 | O=C1NC2(CCN(C(=O)c3ccc4c(c3)OCO4)CC2)COc2ccccc21 | inconclusive: 6.31 µM [inhibitor, partial curve, poor fit] |  | 
54 | CCc1nc2nccc(-c3ccc(Br)s3)n2n1 |  |  | inactive: -11.8%
55 | CCOC(=O)c1ccc(NC(=O)C2CC(=O)N(c3ccc(C(C)C)cc3)C2)cc1 (stereo not given) |  |  | inactive: 10.8%
56 | COc1ccc(C(=O)Nc2ccc3oc(-c4ccc(OC)cc4)nc3c2)cc1 |  |  | inconclusive: -132% [inhibitor] [at 5.79 µM]
57 | COc1ccc(NC(=O)C2=NO[C@@H]3CN(Cc4ccc(F)cc4)C[C@H]23)cn1 | inconclusive: 22.4 µM [inhibitor, single point] |  | 
58 | CCCC(=O)Nc1cc(-c2nc3cccnc3s2)ccc1C | inconclusive: 10 µM [inhibitor, partial curve] |  | 
59 | CCc1cccc(NC(c2nnc(-c3ccccc3)o2)c2ccc(F)cc2Cl)c1 (stereo not given) | inconclusive: 2 µM [inhibitor, full curve, poor fit] |  | 
60 | Cc1ccc(NC(=O)NCC2CCN(Cc3cccc(Cl)c3)CC2)cc1Cl | active: 10 µM |  | 
61 | CN1CCCCCCN(C(=O)Cc2c[nH]c3ccccc23)[C@H]2CCC[C@H]2C1=O | inconclusive: 11.2 µM [inhibitor, partial curve] |  | 
62 | COC[C@@H]1CN(c2cnccn2)C[C@H]1C(=O)Nc1ccc(OC)nc1 | inconclusive: 0.141 µM [inhibitor, full curve, poor fit] |  | 
63 | COC(=O)c1ccc(CN2C(=O)[C@@H]3C[C@@H](O)CN3C3(CN(Cc4cccc(OC)c4)C3)C2=O)cc1 | inconclusive: 8.91 µM [inhibitor, single point] |  | 
64 | COc1ccc2c(c1)Cc1sc(NC(=O)c3cccc(F)c3)nc1-2 | inconclusive: 17.8 µM [inhibitor, single point] |  | 
65 | COc1ccc(Cl)cc1NC(=O)CC1CCCN(c2cnn(C)c(=O)c2)C1 (stereo not given) | inconclusive: 11.2 µM [inhibitor, single point] |  | 
